Test results: the supplement of paper PMC8728848
Some of the results follow.

Key:
Experiment in all cases: glycan array binding signal (z-score within array); higher = stronger binding
Details in all cases: glycan notation: IUPAC condensed, linker removed
[1] = biological target: Fuc(a1-2)[GalNAc(a1-3)]Gal(b1-4)GlcNAc(b1-2)Man(a1-3)[Fuc(a1-2)[GalNAc(a1-3)]Gal(b1-4)GlcNAc(b1-2)Man(a1-6)]Man(b1-4)GlcNAc(b1-4)GlcNAc
Procedure, shortened: (§1)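 Glycan array data came from 3228 arrays in the Consortium for Functional Glycomics database, and only arrays with an available protein sequence were kept. Glycan names were put into IUPAC-condensed notation, and columns mapping to the same glycan were averaged. The binding signal is a within-array Z-score, averaged across arrays of one protein sequence run at different concentrations or buffers and across linkers. A negative Z-score can be read as non-binding.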

[2] = biological target: Fuc(a1-2)[GalNAc(a1-3)]Gal(b1-4)GlcNAc(b1-3)Gal(b1-4)GlcNAc
Procedure, shortened: as §1

[3] = biological target: Fuc(a1-2)[GalNAc(a1-3)]Gal(b1-4)GlcNAc(b1-3)Gal(b1-4)GlcNAc(b1-3)Gal(b1-4)GlcNAc
Procedure, shortened: as §1

[4] = biological target: Fuc(a1-2)[GalNAc(a1-3)]Gal(b1-4)[Fuc(a1-3)]GlcNAc
Procedure, shortened: as §1

[5] = biological target: Fuc(a1-2)[GalNAc(a1-4)]Gal(b1-4)GlcNAc
Procedure, shortened: as §1

[6] = biological target: Fuc(a1-2)[GalNAc(b1-3)]Gal
Procedure, shortened: as §1

[7] = biological target: Fuc(a1-3)GlcNAc
Procedure, shortened: as §1

[8] = biological target: Fuc(a1-3)[Gal(b1-4)]Glc6S
Procedure, shortened: as §1

[9] = biological target: Fuc(a1-3)[Gal(b1-4)]GlcNAc
Procedure, shortened: as §1

[10] = biological target: Fuc(a1-3)[Gal(b1-4)]GlcNAc(b1-2)Man(a1-3)[Fuc(a1-3)[Gal(b1-4)]GlcNAc(b1-2)Man(a1-6)]Man(b1-4)GlcNAc(b1-4)GlcNAc
Procedure, shortened: as §1

[11] = biological target: Fuc(a1-3)[Gal(b1-4)]GlcNAc(b1-3)Gal(b1-3)[Fuc(a1-4)]GlcNAc
Procedure, shortened: as §1

[12] = biological target: Fuc(a1-3)[Gal(b1-4)]GlcNAc(b1-3)GalNAc
Procedure, shortened: as §1

[13] = biological target: Fuc(a1-3)[Gal(b1-4)]GlcNAc(b1-4)Gal(b1-4)[Fuc(a1-3)]GlcNAc
Procedure, shortened: as §1

[14] = biological target: Fuc(a1-3)[Gal(b1-4)]GlcNAc(b1-4)Gal(b1-4)[Fuc(a1-3)]GlcNAc(b1-4)Gal(b1-4)[Fuc(a1-3)]GlcNAc
Procedure, shortened: as §1

[15] = biological target: Fuc(a1-3)[Gal(b1-4)]GlcNAc(b1-6)[Gal(b1-3)GlcNAc(b1-3)]Gal(b1-4)Glc
Procedure, shortened: as §1

[16] = biological target: Fuc(a1-3)[Gal(b1-4)]GlcNAc6S
Procedure, shortened: as §1

[17] = biological target: Fuc(a1-3)[Gal3S(b1-4)]GlcNAc
Procedure, shortened: as §1

[18] = biological target: Fuc(a1-3)[Gal3S(b1-4)]GlcNAc6S
Procedure, shortened: as §1

[19] = biological target: Fuc(a1-3)[GalNAc(b1-4)]GlcNAc
Procedure, shortened: as §1

[20] = biological target: Fuc(a1-4)GlcNAc
Procedure, shortened: as §1

[21] = biological target: Fuc(b1-3)GlcNAc
Procedure, shortened: as §1

[22] = biological target: Gal(a1-2)Gal
Procedure, shortened: as §1

[23] = biological target: Gal(a1-3)Gal
Procedure, shortened: as §1

[24] = biological target: Gal(a1-3)Gal(b1-3)GlcNAc
Procedure, shortened: as §1

[25] = biological target: Gal(a1-3)Gal(b1-3)GlcNAc(b1-2)Man(a1-3)[Gal(a1-3)Gal(b1-3)GlcNAc(b1-2)Man(a1-6)]Man(b1-4)GlcNAc(b1-4)GlcNAc
Procedure, shortened: as §1

[26] = biological target: Gal(a1-3)Gal(b1-3)[Fuc(a1-4)]GlcNAc(b1-2)Man(a1-3)[Gal(a1-3)Gal(b1-3)[Fuc(a1-4)]GlcNAc(b1-2)Man(a1-6)]Man(b1-4)GlcNAc(b1-4)GlcNAc
Procedure, shortened: as §1

[27] = biological target: Gal(a1-3)Gal(b1-4)Glc
Procedure, shortened: as §1

[28] = biological target: Gal(a1-3)Gal(b1-4)GlcNAc
Procedure, shortened: as §1

[29] = biological target: Gal(a1-3)Gal(b1-4)GlcNAc(b1-3)GalNAc
Procedure, shortened: as §1

[30] = biological target: Gal(a1-3)Gal(b1-4)[Fuc(a1-3)]GlcNAc
Procedure, shortened: as §1

[31] = biological target: Gal(a1-3)Gal(b1-4)[Fuc(a1-3)]GlcNAc(b1-2)Man(a1-3)[Gal(a1-3)Gal(b1-4)[Fuc(a1-3)]GlcNAc(b1-2)Man(a1-6)]Man(b1-4)GlcNAc(b1-4)GlcNAc
Procedure, shortened: as §1

[32] = biological target: Gal(a1-3)GalNAc
Procedure, shortened: as §1

[33] = biological target: Gal(a1-3)[Gal(a1-4)]Gal(b1-4)GlcNAc
Procedure, shortened: as §1

[34] = biological target: Gal(a1-4)Gal(b1-3)GlcNAc(b1-2)Man(a1-3)[Gal(a1-4)Gal(b1-3)GlcNAc(b1-2)Man(a1-6)]Man(b1-4)GlcNAc(b1-4)GlcNAc
Procedure, shortened: as §1

[35] = biological target: Gal(a1-4)Gal(b1-4)Glc
Procedure, shortened: as §1

[36] = biological target: Gal(a1-4)Gal(b1-4)GlcNAc
Procedure, shortened: as §1

[37] = biological target: Gal(a1-4)Gal(b1-4)GlcNAc(b1-2)Man(a1-3)[Gal(a1-4)Gal(b1-4)GlcNAc(b1-2)Man(a1-6)]Man(b1-4)GlcNAc(b1-4)GlcNAc
Procedure, shortened: as §1

[38] = biological target: Gal(a1-4)Gal(b1-4)GlcNAc(b1-3)Gal(b1-4)Glc
Procedure, shortened: as §1

[39] = biological target: Gal(a1-4)GlcNAc
Procedure, shortened: as §1

[40] = biological target: Gal(a1-6)Glc
Procedure, shortened: as §1

[41] = biological target: Gal(b1-2)Gal
Procedure, shortened: as §1

[42] = biological target: Gal(b1-3)Gal
Procedure, shortened: as §1

[43] = biological target: Gal(b1-3)Gal(b1-4)GlcNAc
Procedure, shortened: as §1

[44] = biological target: Gal(b1-3)Gal(b1-4)GlcNAc(b1-2)Man(a1-3)[Gal(b1-3)Gal(b1-4)GlcNAc(b1-2)Man(a1-6)]Man(b1-4)GlcNAc(b1-4)GlcNAc
Procedure, shortened: as §1

[45] = biological target: Gal(b1-3)GalNAc
Procedure, shortened: as §1

B1: CLEC-1 (Homo sapiens), Q9NZH3 (protein)
chain: MQAKYSSTRDMLDDDGDTTMSLHSQASATTRHPEPRRTEHRAPSSTWRPVALTLLTLCLVLLIGLAAWGLLFFQYYQLSNTGQDTISQMEERLGNTSQELQSLQVQNIKLAGSLQHVAEKLCRELYNKAGAHRCSPCTEQWKWHGDNCYQFYKDSKSWEDCKYFCLSENSTMLKINKQEDLEFAASQSYSEFFYSYWTGLLRPDSGKAWLWMDGTPFTSELFHIIIDVTSPRSRDCVAILNGMIFSKDCKELKRCVCERRAGMVKPESLHVPPETLGEGD
Which results are given for B1?
glycan array binding signal (z-score) [1]: -0.152; glycan array binding signal (z-score) [2]: -0.168; glycan array binding signal (z-score) [3]: -0.297; glycan array binding signal (z-score) [4]: -0.163; glycan array binding signal (z-score) [5]: -0.263; glycan array binding signal (z-score) [6]: -0.129; glycan array binding signal (z-score) [7]: -0.256; glycan array binding signal (z-score) [8]: -0.515; glycan array binding signal (z-score) [9]: -0.06; glycan array binding signal (z-score) [10]: 0.129; glycan array binding signal (z-score) [11]: -0.424; glycan array binding signal (z-score) [12]: -0.019; glycan array binding signal (z-score) [13]: 0.18; glycan array binding signal (z-score) [14]: 0.063; glycan array binding signal (z-score) [15]: 0.054; glycan array binding signal (z-score) [16]: 0.057; glycan array binding signal (z-score) [17]: -0.18; glycan array binding signal (z-score) [18]: -0.521; glycan array binding signal (z-score) [19]: -0.232; glycan array binding signal (z-score) [20]: -0.383; glycan array binding signal (z-score) [21]: -0.203; glycan array binding signal (z-score) [22]: -0.406; glycan array binding signal (z-score) [23]: -0.376; glycan array binding signal (z-score) [24]: -0.401; glycan array binding signal (z-score) [25]: 3.16; glycan array binding signal (z-score) [26]: 0.413; glycan array binding signal (z-score) [27]: -0.224; glycan array binding signal (z-score) [28]: 0.093; glycan array binding signal (z-score) [29]: -0.291; glycan array binding signal (z-score) [30]: 0.587; glycan array binding signal (z-score) [31]: -0.162; glycan array binding signal (z-score) [32]: 0.025; glycan array binding signal (z-score) [33]: -0.278; glycan array binding signal (z-score) [34]: 0.449; glycan array binding signal (z-score) [35]: -0.591; glycan array binding signal (z-score) [36]: -0.187; glycan array binding signal (z-score) [37]: 5.92; glycan array binding signal (z-score) [38]: -0.372; glycan array binding signal (z-score) [39]: -0.035; glycan array binding signal (z-score) [40]: 0.261; glycan array binding signal (z-score) [41]: -0.482; glycan array binding signal (z-score) [42]: -0.166; glycan array binding signal (z-score) [43]: -0.338; glycan array binding signal (z-score) [44]: -0.326; glycan array binding signal (z-score) [45]: 0.068
